The values that follow come from the antibiotic and cytotoxicity screens of Wong et al. (2023).

The list shows a part of the results.

The test system of this assay is HSkMC (human skeletal muscle cells). Put plainly: cytotoxicity call (relative viability < 0.9). The settings on record: 10 µM.
For `C[C@@H]1CN([C@@H](C)CO)C(=O)c2cccc(NC(=O)Nc3ccc(F)cc3)c2O[C@@H]1CN(C)S(=O)(=O)c1cn(C)cn1`, the cytotoxicity call was “inactive”.

Regarding `Cc1ccc(S(=O)(=O)N(C)C[C@H]2OCCCC[C@H](C)Oc3ccc(NC(=O)Nc4cccc5ccccc45)cc3C(=O)N([C@H](C)CO)C[C@@H]2C)cc1`, the cytotoxicity call was “inactive”.

Consider `C[C@H](CO)N1C[C@H](C)[C@@H](CN(C)CC2CC2)Oc2c(NS(=O)(=O)c3ccccc3)cccc2C1=O`, for which the cytotoxicity call is “inactive”.

In the case of `Cc1noc(C)c1NC(=O)N(C)C[C@@H]1Oc2c(NC(=O)c3ccncc3)cccc2C(=O)N([C@@H](C)CO)C[C@H]1C`, the cytotoxicity call was “inactive”.

Regarding `CC(C)(O)C#Cc1ccc([C@@H]2[C@H]3CN(S(C)(=O)=O)CCCCN3[C@H]2CO)cc1`, the cytotoxicity call was “inactive”.

As to `C[C@@H]1CCCCO[C@H](CN(C)C(=O)NC2CCCCC2)[C@@H](C)CN([C@H](C)CO)C(=O)c2cc(NC(=O)Nc3ccc(C(F)(F)F)cc3)ccc2O1`, the cytotoxicity call is “inactive”.

As for `O=C(N[C@@H](c1ccccc1)c1ccc2ccccc2n1)C1CCN(CCOc2ccc(Cl)cc2)CC1`, the cytotoxicity call was “inactive”.

In the case of `COc1ccc(C(=O)Nc2cccc(CN3C(=O)[C@]4(O[C@H](CC(=O)N(CCO)Cc5ccccc5)[C@@H]([Si](C)(C)c5ccc(OC)cc5)[C@@H]4C)c4ccccc43)c2)cc1`, the cytotoxicity call was “inactive”.

`C[C@@H]1CCCCO[C@@H](CN(C)C(=O)Nc2ccc3c(c2)OCO3)[C@@H](C)CN([C@@H](C)CO)C(=O)c2cc(NC(=O)c3ccccc3)ccc2O1`: the cytotoxicity call was “inactive”.

Regarding `C[C@@H]1CN([C@@H](C)CO)C(=O)CCCn2cc(nn2)CO[C@@H]1CN(C)C(=O)CCCN(C)C`, the cytotoxicity call was “inactive”.
